Experimental data as given in paper PMC4336329 (PLoS ONE, 2015).
Among all 310,000 compounds or so, about 14,000 (4.5%) showed an effect of 50% or more. Effects have a minus sign here. This is one part of the list. Where a SMILES comes first, the peptide text is derived from it. The star is where a group is joined. Cbz = O=C(OCc1ccccc1)*

Biological target: human ether-à-go-go-related gene (hERG) potassium channel (human, UniProt Q12809)
Test: primary screen, population patch clamp on CHO cells stably expressing hERG
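Note: peak tail current of the secondary pulse compared with the same well before compound.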

human ether-à-go-go-related gene (hERG) potassium channel, sequence (Q12809 whole entry, looked up): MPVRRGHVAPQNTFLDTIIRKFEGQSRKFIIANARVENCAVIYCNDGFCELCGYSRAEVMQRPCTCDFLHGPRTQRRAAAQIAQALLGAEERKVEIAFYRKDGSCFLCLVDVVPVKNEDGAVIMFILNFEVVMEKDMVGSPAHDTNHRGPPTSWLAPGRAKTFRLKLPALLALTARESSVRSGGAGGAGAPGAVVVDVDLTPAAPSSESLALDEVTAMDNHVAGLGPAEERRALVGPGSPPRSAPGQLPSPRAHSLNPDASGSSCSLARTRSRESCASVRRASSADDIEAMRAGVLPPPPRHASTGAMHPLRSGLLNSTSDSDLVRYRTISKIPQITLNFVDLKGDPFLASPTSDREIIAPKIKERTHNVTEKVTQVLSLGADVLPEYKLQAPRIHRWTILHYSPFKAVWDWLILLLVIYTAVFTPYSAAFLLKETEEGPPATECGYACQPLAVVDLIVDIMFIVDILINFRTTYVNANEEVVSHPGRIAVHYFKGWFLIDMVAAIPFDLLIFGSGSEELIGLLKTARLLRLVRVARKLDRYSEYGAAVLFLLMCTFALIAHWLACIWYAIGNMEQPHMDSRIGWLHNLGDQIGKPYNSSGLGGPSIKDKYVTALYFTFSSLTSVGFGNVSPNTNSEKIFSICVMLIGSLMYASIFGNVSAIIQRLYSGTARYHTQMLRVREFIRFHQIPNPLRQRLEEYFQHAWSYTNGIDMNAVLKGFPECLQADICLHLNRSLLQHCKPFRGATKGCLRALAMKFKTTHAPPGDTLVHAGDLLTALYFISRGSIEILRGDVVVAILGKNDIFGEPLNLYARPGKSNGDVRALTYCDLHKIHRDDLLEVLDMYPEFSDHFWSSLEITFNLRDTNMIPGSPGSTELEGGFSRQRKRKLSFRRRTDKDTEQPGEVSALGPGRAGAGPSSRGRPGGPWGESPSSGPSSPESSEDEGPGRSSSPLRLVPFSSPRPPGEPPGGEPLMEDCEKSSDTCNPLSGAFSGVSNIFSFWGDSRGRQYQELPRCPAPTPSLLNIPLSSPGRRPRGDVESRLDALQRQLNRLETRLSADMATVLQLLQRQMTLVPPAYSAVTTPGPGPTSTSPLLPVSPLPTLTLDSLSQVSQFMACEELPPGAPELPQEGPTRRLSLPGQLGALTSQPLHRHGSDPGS

First: CC1CN(C(=O)c2ccccc2)C(=Nc2cccc(S(=O)(=O)N(C)C)c2)S1 (stereo not shown)
Second: O=C(C#Cc1ccccc1)c1cccc([N+](=O)[O-])c1
The “hERG current change (%, negative = inhibition) at 10uM” value of the first is lower: -23.1% for the first, 19.4% for the second.

Compared with O=C(Cn1cnc2c(nnn2Cc2ccc(F)cc2)c1=O)Nc1ccccc1, O=C(C[n+]1cc(-c2ccc(F)cc2)n2c1CCC2)OCc1ccccc1.[Br-] is lower in “hERG current change (%, negative = inhibition) at 10uM” value: 25.6% for the first, -11.9% for the second.

First: Cc1ccccc1NC(=O)OCc1cccnc1Oc1ccc(Cl)cc1
Second: O=C(Nc1ccccc1C(=O)N1CCCCCC1)c1ccc(Cl)cc1
The “hERG current change (%, negative = inhibition) at 10uM” value of the first is lower: 6.26% for the first, 25.2% for the second.

Going from Cc1[nH]n(C(N)=S)c(=O)c1N=Nc1ccc(S(=O)(=O)N2CCCC2)cc1 to CCc1nnc(NC(=O)c2ccc(S(=O)(=O)N3CCCCC3C)cc2)s1 (stereo not shown), the “hERG current change (%, negative = inhibition) at 10uM” value rises from -1.91% to 14.4%.

Going from Br.CC(C)(C)N1Cc2ccccc2C1=N to Cc1ccc(C)c(OCCCC(C)(C)C(=O)O)c1, the “hERG current change (%, negative = inhibition) at 10uM” value rises from -3.56% to 8.14%.

Going from O=C1CCC/C(=N\NC(=O)COc2ccc(Cl)cc2)C1 to Cc1ccnc(NC(=O)COc2ccc3oc4c(c3c2)CCCC4)c1, the “hERG current change (%, negative = inhibition) at 10uM” value falls from 15.7% to 11.2%.

First: O=C(Cn1cc2c(n1)CCCC2)NCC1CCCO1 (stereo not shown)
Second: CN(CC(=O)Nc1ccccc1C(F)(F)F)CC(=O)N1CCCCCC1
The “hERG current change (%, negative = inhibition) at 10uM” value of the first is higher: 7.74% for the first, -4.79% for the second.

Compared with CCOC(=O)/C(C#N)=C/Nc1cc(OC)ccc1OC, COc1ccc(NC(=S)NC(=O)c2cc3ccccc3o2)c(OC)c1 is higher in “hERG current change (%, negative = inhibition) at 10uM” value: 11.2% for the first, 28.8% for the second.

First: Nc1nnc(Cc2ccc(Cl)c(Cl)c2)s1
Second: Nc1nnc(SC2CC(=O)N(c3ccccc3)C2=O)s1 (stereo not shown)
The “hERG current change (%, negative = inhibition) at 10uM” value of the first is lower: -4.56% for the first, 16.8% for the second.

Compared with CCn1cc(C(=O)NCc2ccc3c(c2)OCO3)c(=O)c2cc(S(=O)(=O)N(C)C)ccc21, CS(=O)(=O)N(CC(=O)NCc1ccc2c(c1)OCO2)c1ccccc1 is higher in “hERG current change (%, negative = inhibition) at 10uM” value: -6.75% for the first, 6.97% for the second.

Compared with Cc1ccccc1NC(=O)C(=O)NCCCN1CCOCC1, O=C(OCCN1CCOCC1)c1cccnc1 is lower in “hERG current change (%, negative = inhibition) at 10uM” value: 17.7% for the first, -25.7% for the second.

First: Cc1cc(C)cc(OCc2nnc(SCC(=O)NC3CC3)n2C)c1
Second: Cc1c(C)n2c(SCC(=O)NC3CCCCC3)nnc2[nH]c1=O
The “hERG current change (%, negative = inhibition) at 10uM” value of the first is higher: -4.84% for the first, -8.13% for the second.

First: COc1ccc(C2CC(c3cccs3)=NN2C(=O)CSc2nnnn2C)cc1OC (stereo not shown)
Second: COc1ccc(-c2c(C)nn3c(N)c(-c4ccccc4)cnc23)cc1OC
The “hERG current change (%, negative = inhibition) at 10uM” value of the first is lower: -25.1% for the first, 7.46% for the second.

Compared with O=C(O)Cc1ccc2ccc3ccccc3c2c1, COc1ccc(CCNC(=O)C/C(C)=N/NC(=O)Cc2cccc3ccccc23)cc1OC is lower in “hERG current change (%, negative = inhibition) at 10uM” value: 12.7% for the first, 3.71% for the second.

First: O=C(NCc1csc(-c2cccs2)n1)c1ccsc1
Second: COCC(C)NC(=O)c1ccc(-n2nc(C(F)(F)F)cc2-c2cccs2)cc1 (stereo not shown)
The “hERG current change (%, negative = inhibition) at 10uM” value of the first is higher: -6.54% for the first, -32.7% for the second.

Compared with COC(=O)C(C)NC(=O)C1CCCN1C(=O)CNC(=O)OCc1ccccc1 (stereo not drawn) (Cbz-Gly-Pro-Ala-OMe; configuration not given here), COc1cc(NC(=O)c2cccs2)c(C(=O)OCC(=O)NC(=O)NCc2ccccc2)cc1OC is lower in “hERG current change (%, negative = inhibition) at 10uM” value: 21.2% for the first, -5.74% for the second.

Going from CC1CN(CCCCSc2ccc(Cl)cc2)CC(C)O1.O=C(O)C(=O)O (stereo not shown) to CSc1ccc(CN2CCN(CC=C(C)C)C(CCO)C2)cc1 (stereo not shown), the “hERG current change (%, negative = inhibition) at 10uM” value falls from -31.6% to -46.2%.

First: CCn1c(Cc2ccccc2)nnc1SCC(=O)Nc1ccc(N2CCOCC2)c(Cl)c1
Second: CC(C)n1c(SCC(=O)Nc2ccc(N3CCOCC3)cc2)nnc1-c1ccco1
The “hERG current change (%, negative = inhibition) at 10uM” value of the first is lower: -5.94% for the first, 9.21% for the second.

Compared with CCc1nc2n[nH]c(N)c2c2c1CCCC2, Cc1cc(C)c2c(=O)[nH]n(C3CC(C)N(C)CC3C)c2n1 (stereo not shown) is higher in “hERG current change (%, negative = inhibition) at 10uM” value: 1.37% for the first, 4.5% for the second.

First: CCC(=O)Nc1sc2c(c1C#N)CC(C)(CC)OC2 (stereo not shown)
Second: CCOC(=O)C(C)Sc1nc(N2CCOCC2)c2c(c1C#N)CC(C)(C)OC2 (stereo not shown)
The “hERG current change (%, negative = inhibition) at 10uM” value of the first is higher: -2.16% for the first, -47.9% for the second.

Going from CNC(=O)n1ccc(C(=O)N2CCCCC2)n1 to CN(C1CCCC1)C1CCN(C(=O)CNC(=O)/C=C/c2ccc(F)cc2)CC1, the “hERG current change (%, negative = inhibition) at 10uM” value falls from 11.1% to -62.6%.

First: COc1ccccc1NC(=O)CSc1nc2ccccc2c(=O)n1CCNC(C)=O
Second: C=CCn1c(SCC(=O)Nc2cc3oc4ccccc4c3cc2OC)nnc1-c1cnccn1
The “hERG current change (%, negative = inhibition) at 10uM” value of the first is lower: -62.2% for the first, -7.06% for the second.

Compared with COc1ccc(C(=O)N2CC3(CC(c4cccc(NC(=O)CC(c5ccccc5)c5ccccc5)c4)=NO3)C[C@H]2C(N)=O)cc1 (stereo partly shown), CC(=O)Nc1ccc(NC(=O)CSc2ccc(-c3ccc(-n4ccnc4)cc3)nn2)cc1 is higher in “hERG current change (%, negative = inhibition) at 10uM” value: 1.82% for the first, 12.5% for the second.

Compared with CC(C)(C)C(=O)COC(=O)c1ccc2c(c1)C(=O)N(Cc1ccco1)C2=O, Cc1cccc(N(C)C(=O)COc2cc(=O)n(C)c3ccccc23)c1 is lower in “hERG current change (%, negative = inhibition) at 10uM” value: -8.27% for the first, -12.7% for the second.

Compared with Cc1ccc(OCCN2CCNCC2)c([N+](=O)[O-])c1.O=C(O)C(=O)O, CCN(CC)S(=O)(=O)c1ccc(OCC(=O)NC2CCS(=O)(=O)C2)c([N+](=O)[O-])c1 (stereo not shown) is higher in “hERG current change (%, negative = inhibition) at 10uM” value: -5.84% for the first, 13.6% for the second.

First: O=C(NCCCNc1ccc(C(F)(F)F)cc1[N+](=O)[O-])c1cc(F)c(F)cc1Cl
Second: CC(=O)C[C@H]1c2cc(C(F)(F)F)ccc2S(=O)(=O)N1Cc1ccccc1
The “hERG current change (%, negative = inhibition) at 10uM” value of the first is higher: -15.7% for the first, -22.3% for the second.

First: Clc1ccc(CNC2CCN(Cc3ccccc3)CC2)cc1
Second: CCOC(=O)C1(CCOC)CCN(Cc2cccc(OCc3ccccc3)c2)CC1
The “hERG current change (%, negative = inhibition) at 10uM” value of the first is lower: -72.7% for the first, -42.4% for the second.

Going from CCn1nnc(-c2ccccc2NS(=O)(=O)c2ccc(C(=O)OC)cc2)n1 to CCNS(=O)(=O)c1ccc(NC(=O)CC(C)c2ccccc2)cc1 (stereo not shown), the “hERG current change (%, negative = inhibition) at 10uM” value falls from -2.42% to -2.45%.

Compared with C/C(=N/Nc1ncc(C(F)(F)F)cc1Cl)c1ccncc1, O=C(Oc1ccc2c(=O)c(Cl)coc2c1)c1ccncc1 is higher in “hERG current change (%, negative = inhibition) at 10uM” value: -6.36% for the first, 4.28% for the second.

Going from NNc1nc2c(F)cccc2s1 to COCc1cc(C)nc2sc(C(=O)Nc3cccc(OC)c3)c(N)c12, the “hERG current change (%, negative = inhibition) at 10uM” value rises from -18.4% to 4.78%.

Going from CC(=O)Nc1ccc2c3c(cccc13)C(=O)N(c1ccccc1)C2=O to O=C(CSc1n[nH]c(-c2ccccc2F)n1)Nc1cc(F)ccc1F, the “hERG current change (%, negative = inhibition) at 10uM” value falls from 18.9% to -10.8%.

Going from CC1(C)CC(=O)C(C(c2cc([N+](=O)[O-])ccc2Cl)C2C(=O)CC(C)(C)CC2=O)C(=O)C1 to CCCc1cc(=O)oc2c(C)c(OCC(=O)N3CCC(C(N)=O)CC3)ccc12, the “hERG current change (%, negative = inhibition) at 10uM” value rises from -1.87% to 9.66%.

Going from O=S(=O)(c1ccccc1)N(CC1CO1)c1ccccc1 (stereo not shown) to O=C(N/N=C/C(Br)=C\c1ccccc1)c1ccco1, the “hERG current change (%, negative = inhibition) at 10uM” value falls from -0.159% to -10.4%.

First: C[C@H](NC(=O)c1ccco1)C(=O)Nc1ccc(C#N)cc1
Second: COc1ccc(S(=O)(=O)N(C)C)cc1NCC(=O)Nc1cccc(C#N)c1
The “hERG current change (%, negative = inhibition) at 10uM” value of the first is higher: 3% for the first, 2.34% for the second.

Going from Cc1nnsc1-c1nnc(SCC(=O)c2ccc(F)cc2)n1C1CC1 to CSc1nnc(-c2sccc2OCc2ccc(C)cc2)n1C, the “hERG current change (%, negative = inhibition) at 10uM” value falls from 3.13% to -17.4%.

Compared with COC(=O)c1cc(OC)c(OC)cc1NC(=O)Nc1ccccc1F, COc1cc(CNC(=O)c2cc3ccccc3oc2=O)cc(OC)c1OC is lower in “hERG current change (%, negative = inhibition) at 10uM” value: 11.8% for the first, 5.59% for the second.

Compared with CCOC(=O)C1=C(COC(=O)COc2ccccc2OCC)NC(=O)NC1C (stereo not shown), CCOc1ccc(OCC)c(S(=O)(=O)NNC(=O)c2c(C)nc3ccccn23)c1 is lower in “hERG current change (%, negative = inhibition) at 10uM” value: 8.51% for the first, -24.2% for the second.

Compared with Nc1cc(N)c(OCC(F)(F)F)cc1OCC(F)(F)F, COc1ccc(CCNC(=O)CN2CCN(c3cccc(C(F)(F)F)c3)CC2)cc1 is lower in “hERG current change (%, negative = inhibition) at 10uM” value: 18% for the first, -46.3% for the second.

Compared with COC1CCCN(Cc2cn(C)nc2-c2ccc(Oc3ccccc3)cc2)C1 (stereo not shown), COc1ccc(-c2nn(CCC(=O)O)cc2CCC(=O)O)cc1 is higher in “hERG current change (%, negative = inhibition) at 10uM” value: -40.7% for the first, 22.1% for the second.

Compared with N#CC1=C(S)N(c2ccc(F)cc2)C(c2ccco2)NC1=O (stereo not shown), Cc1ccc(S(=O)(=O)Nc2nc(-c3ccc(F)cc3)cs2)cc1 is lower in “hERG current change (%, negative = inhibition) at 10uM” value: 30.3% for the first, 5.84% for the second.

Compared with COc1ccc(/C=C/C(=O)N2CCN(c3ccccn3)CC2)c(OC)c1OC, CCN1CCN(c2ccc(S(=O)(=O)N3CCCCC3)cc2NC(=O)c2cccc(F)c2)CC1 is lower in “hERG current change (%, negative = inhibition) at 10uM” value: -11.6% for the first, -34.6% for the second.

First: Cc1cccc(NC(=O)CSc2nnc(CNC(=O)c3cccs3)o2)c1C
Second: CCCn1nc(NC(=O)CC(C)C)c2cc3cccc(C)c3nc21
The “hERG current change (%, negative = inhibition) at 10uM” value of the first is lower: -4.83% for the first, 6.89% for the second.

Compared with Cc1ccc(CSCCNS(=O)(=O)c2ccc(C)cc2)cc1, O=C(O)CCC(=O)N1N=C(c2ccc(Br)cc2)CC1c1ccc(Br)cc1 (stereo not shown) is higher in “hERG current change (%, negative = inhibition) at 10uM” value: 2.75% for the first, 20.6% for the second.

First: Fc1cc(Br)ccc1COc1ccc(-c2nnco2)cc1
Second: Cc1nn(S(=O)(=O)N2CCOCC2)c(C)c1Br
The “hERG current change (%, negative = inhibition) at 10uM” value of the first is higher: 17.3% for the first, -0.162% for the second.
